We go through 72 compounds from PubChem BioAssay AID1240 (Sanford-Burnham Center for Chemical Genomics, 2008).

About 800 (1.6%) of roughly 50,000 compounds showed an effect of 50% or more. The list shows a part of the results.

The target in the test is Bcl-2-like protein 10 (Homo sapiens) (UniProt Q9HD36). Nature of the test: Phenotype converters, Bcl-B/TR3 peptide binding displacement, primary biochemical FP (AID 1240).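 Also: 0% = Bcl-B with tracer peptide and DMSO and 100% = tracer peptide lacking Bcl-B.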 The note with it: GST-Bcl-B / FITC-TR3 peptide fluorescence polarization; stronger effect = higher value; compound at 3.75 mg/L. In general terms: Polarisation of emitted light reports the rotation of a fluorescent probe.
Chain of UniProt Q9HD36 (Q9HD36 whole entry, looked up): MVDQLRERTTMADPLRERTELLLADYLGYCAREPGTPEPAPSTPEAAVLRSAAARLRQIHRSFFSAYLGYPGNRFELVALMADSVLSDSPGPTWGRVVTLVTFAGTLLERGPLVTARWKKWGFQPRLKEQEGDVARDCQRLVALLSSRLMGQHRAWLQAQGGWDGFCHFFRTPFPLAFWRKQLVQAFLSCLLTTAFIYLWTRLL
Consider `CC1=C(C(=O)OCCc2ccccc2)C(c2cccc(Cl)c2Cl)CC(=O)N1` (configuration not stated), for which the displacement was -8.4%.
In the case of `Cc1cc2nc(-c3ccc(Cl)c(NC(=O)/C=C/c4ccco4)c3)oc2cc1C`, the displacement was -29.9%.
The same measure for `CN(C)c1ccc(/C=N/NC(=O)c2cc(-c3ccc4ccccc4c3)n[nH]2)cc1`: 5.9%; for `COc1ccc(C2NC(C)(C)Cc3cc(OC)c(OC)cc32)cc1` (configuration not stated): -9.6%.
`Cc1ccc(NC(=O)CN(c2ccc(Cl)cc2)S(C)(=O)=O)cc1`: the displacement was -12.2%.
`COc1ccc(C2CC(c3ccc(Br)cc3)=NN2C(=O)CCC(=O)O)cc1OC` (configuration not stated): the displacement amounted to 6.1%.
The same measure for `COc1ccc(C2=N/C(=C/c3ccc([N+](=O)[O-])cc3)C(=O)N2c2ccc(O)cc2)cc1`: 1.2%; for `Cc1ccc(OCCc2c(C)n[nH]c2C)cc1C`: 14.6%; for `CC(=O)NCCN=Cc1c(O)[nH]c2ccccc12`: 14%.
As for `CCOc1cc(C2NC(=S)NC(C)=C2C(=O)Nc2ccc(Cl)cc2)ccc1O` (configuration not stated), the figure is -3.2%.
Turning to `NC(=O)c1ccc(NC(=O)COc2cccc(Cl)c2)cc1`, the displacement came out at 1.7%.
The same measure for `CCOC(=O)c1c(NC(=O)C(C(C)C)N2C(=O)c3ccccc3C2=O)sc(C)c1C` (configuration not stated): -16.7%.
For the compound `Nc1nc(-c2cccc(Br)c2)cs1`, the displacement was -1.7%.
Consider `OCn1nc(-c2ccccc2Br)oc1=S`, for which the displacement was 9.4%.
Take `CCOc1cccc(-c2cc(C(=O)NCc3ccc4c(c3)OCO4)c3ccccc3n2)c1`: the displacement is -6.2%.
As for `Cc1ccc(C2Nc3ccccc3C(=O)N2Cc2ccco2)cc1` (configuration not stated), the displacement is 15.4%.
Take `Nc1ccc(Sc2ccccc2[N+](=O)[O-])cc1`: the displacement was 10.9%.
As for `COc1ccc(OCc2nc(-c3ccccn3)no2)cc1`, the figure is 12.3%; as for `Cc1cc(C)cc(NC(=O)c2c(-c3c(Cl)cccc3Cl)noc2C)c1`, -1.8%; as for `CCOC(=O)C(=CNc1ccc(OC)c(Cl)c1)C(=O)OCC`, 0%.
For the compound `COC(=O)CCC(=O)Nc1cccc(Br)c1`, the displacement was -19.7%.
On to `Cc1ccccc1C(=O)NC(NC(=O)c1ccccc1C)c1cccc([N+](=O)[O-])c1`, for which the displacement is -2.7%.
The same measure for `Cc1ccc(C(=O)N/C(=C\c2cccc(Oc3ccccc3)c2)C(=O)NCc2ccncc2)cc1`: 20.4%; for `COC(=O)C1=C(O)/C(=C/c2cc(C)n(-c3ccccc3C(F)(F)F)c2C)N=C1C`: 12.6%.
The same measure for `Cc1ccc(-c2csc(NC(=O)c3ccc([N+](=O)[O-])cc3Cl)n2)cc1`: -10%; for `COCCOC(=O)c1c(C)oc2ccc(OCc3ccc(F)cc3)cc12`: 9.3%.
Take `CCCN1C(=O)c2ccccc2NC1c1ccc(OC)c(COc2ccc(F)cc2)c1` (configuration not stated): the displacement came out at 11.6%.
As for `O=C(NCc1ccc2c(c1)OCO2)c1cccc([N+](=O)[O-])c1`, the figure is -9.4%; as for `COc1ccc(N2C(=O)C(O)=C(C(=O)/C=C/c3ccccc3)C2c2ccc(Cl)cc2)cc1` (configuration not stated), -0.4%.
In the case of `Cc1cc(-c2cc(Cl)ccc2O)n[nH]1`, the displacement came to 24.8%.
As for `COc1ccc(NC(=O)c2ccccc2C)c(OC)c1`, the displacement was -5.1%.
As for `CC1(C)CC(=O)C(N=Nc2cc(C(F)(F)F)ccc2Cl)=C(O)C1`, the figure is 2.6%; as for `Cc1ccc(C(=O)CC(=O)c2ccccc2C)c(O)c1`, 15.9%; as for `NC(=O)c1ccc(NC(=S)Nc2ccccc2)cc1`, -3.3%.
On to `COC(=O)C1=C(C)NC(=O)NC1c1ccccc1Br` (configuration not stated), for which the displacement was -8.5%.
The same measure for `O=C(/C=C/c1ccco1)Nc1ccc(O)cc1C(=O)O`: 9.8%; for `COC(=O)C1=C(C)NC(=S)NC1c1sccc1C` (configuration not stated): 4.9%; for `CN(C)c1ccc(/C=C2\N=C(c3ccccc3Cl)OC2=O)cc1`: -11.9%.
Consider `CC1(C)OC(=O)C(=Cc2ccc(-c3ccc(Cl)cc3Cl)o2)C(=O)O1`, for which the displacement amounted to 34.4%.
On to `COCCCNC(=O)c1ccc(NC(C)=O)cc1`, for which the displacement turned out to be 2%.
As for `Cc1ccc(/C=N\N2CCN(c3ccc(Cl)cc3)CC2)cc1`, the displacement was -5.3%.
On to `O=C(Nc1nc2ccccc2s1)C1CCCCC1`, for which the displacement was 2.4%.
With `CCCC1=C(C(=O)OCC)C(c2ccc(Cl)cc2Cl)NC(=O)N1` (configuration not stated), the displacement is -13.5%.
As to `O=C(Nc1c(C(=O)N2CCOCC2)cnn1-c1ccccc1)c1ccccc1`, the displacement was 40.9%.
In the case of `COCCOC(=O)c1c(C)oc2ccc(OCc3ccc(Br)cc3)cc12`, the displacement amounted to 13.6%.
For `O=[N+]([O-])c1cccc(S(=O)(=O)Nc2cc(C(F)(F)F)ccc2Cl)c1`, the displacement came out at 5.2%.
As to `O=C(CN(c1ccc(Cl)cc1Cl)S(=O)(=O)c1ccccc1)NC1CCCC1`, the displacement is 34.8%.
As for `CC1=C(C(=O)Nc2ccc(Cl)cc2)C(c2ccc(N(C)C)cc2)NC(=S)N1` (configuration not stated), the figure is -9.2%.
Turning to `O=C(COc1ccc(Br)cc1)NC1CCCCC1`, the displacement was -0.3%.
The same measure for `Cc1ccc(NC2=CC(=O)C=CC2=O)c(C)c1`: 17.6%; for `COc1cccc(NC(=O)c2ccc(CN3CCN(Cc4ccccc4)CC3)cc2)c1`: 4.6%.
Regarding `O=C(O)c1cccc(N2C(=O)c3cccnc3C2=O)c1`, the displacement came to 30.3%.
As to `O=C(c1cccc(Cl)c1)N1CCN(c2cccc(Cl)c2)CC1`, the displacement is 11.2%.
As to `O=C(Cc1ccc(Cl)cc1)Nc1ccccc1I`, the displacement is 0.6%.
Regarding `C=CCc1cccc(/C=N\NC(=O)CN2CCN(Cc3ccccc3)CC2)c1O`, the displacement was -18.1%.
Take `CN1CCN(c2ccc([N+](=O)[O-])cc2C(=O)Nc2ccc(Cl)c(Cl)c2)CC1`: the displacement came to 7.1%.
The same measure for `O=C(Nc1ccccc1Br)c1ccc(OC(F)F)cc1`: 10.1%; for `COC(=O)C1=C(C)NC(C)=C(C(=O)OC)C1c1c(F)cccc1Cl`: -0.4%.
Consider `CCOc1ccccc1/C=C/C(=O)c1ccc(Br)cc1`, for which the displacement came out at 10.2%.
The same measure for `O=C(CSc1nc2ccccc2[nH]1)c1ccc2c(c1)Cc1ccccc1-2`: -9.4%; for `Cc1ccc(OCC(O)Cn2c3ccccc3c3ccccc32)cc1C` (configuration not stated): 15.9%; for `Cc1ccc(NC(=O)c2ccc3c(c2)OCO3)cc1[N+](=O)[O-]`: 4.9%.
For `O=C(Nc1ccc(Cl)c(Cl)c1)Nc1nnc(CCc2ccccc2)s1`, the displacement was found to be 5.6%.
The same measure for `CCOC(=O)c1c(NC(=O)c2ccc(S(=O)(=O)N3CCCCC3)cc2)sc(C)c1C`: -4.5%.
The same measure for `O=C(/C(=N\O)n1cncn1)c1ccc(Cl)cc1Cl`: 9.2%; for `COc1ccc(Cl)cc1NC(=O)COc1ccc(C)cc1Br`: 3.1%.
Take `CCN(CC)c1nc(-c2ccccc2O)nc2ccccc12`: the displacement was -2.1%.
For the compound `O=C(c1ccccc1)N1CCN(CCN2C(=O)c3cccc4cccc(c34)C2=O)CC1`, the displacement was -12%.
As for `CCOC(=O)C1CCN(Cn2nc(-c3ccc(C)cc3)oc2=S)CC1`, the figure is -17.9%; as for `O=C1NC(=O)/C(=C\c2cccc(Cl)c2)S1`, -4.9%; as for `COc1ccc2oc(=O)c(-c3csc(Nc4ccccc4C)n3)cc2c1`, 1.1%.
For `COc1cccc(N2C(=O)/C(=C/c3ccc4c(c3)OCO4)SC2=S)c1`, the displacement was determined as 7.4%.
